Measurements reported in the RNAGym collection of RNA variant scans (doi:10.1093/nar/gkz1192).
The source gives no read counts; variants with many changes may rest on few reads.

B1: CPEB3 Ribozyme (parent)
chain: UAACAGGGGGCCACAGCAGAAGCGUUCACGUCGCAGCCCCUGUCAGAUUCUGGUGAAUCUGCGAAUUCUGCUGUAUAUCUC

Variants of: B1
Assay: self-cleavage, relative activity (ratio to wild type); higher = more cleavage; in vitro, sequencing
Outline: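 CPEB3 self-cleaving ribozyme mutant libraries were made by rounds of error-prone PCR, barcoded, and transcribed in vitro with T7 RNA polymerase for 5 hours at 37°C. Cleavage occurred during transcription and a 15 min DNase I step before EDTA stop. RNAs were reverse transcribed with template switching and Illumina-sequenced, with DNA sequencing mapping barcodes to variants. Relative activity is the variant's cleaved/total read fraction divided by wild type's (minimum 5 reads), averaged across three batches.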
Variant UGACAGGGGGCCACAGCAGAAGCGUUCACGUCGCAGCCCCUGCCAGAUUCUGGUGAAUCUGCGAAUUCUGCUGUACAUCUC [A2G U43C U76C] has a self-cleavage of 0.62. UGACAGGGGGCCACAGCAGAAGCGUUCACGUCGCAGCCCCUGUCAGAAUCUGGUGAACCUGCGAAUUCUGCAGUAUAUCUC [A2G U48A U58C U72A] showed a self-cleavage of 0.21. Work on UGACAGGGGGCCACAGCAGAAGCGUUCACGUCGCAGCCCCUGUCAGACUCUGGUGUAUCUGCGAAUUCUGCUGUAUAUCUC [A2G U48C A56U] yielded a self-cleavage of 0.13. For UGACAGGGGGCCACAGCAGAAGCGUUCACGUCGCAGCCCCUGUCAGAUCCUGGUGAGUCUGCGAAUUCUGCUGUAUAUCUC [A2G U49C A57G], the self-cleavage was 0.28. UGACAGGGGGCCACAGCAGAAGCGUUCACGUCGCAGCCCCUGUCAGAUUCAGGCGAAUCUGCGAAUUCUGCCGUAUAUCUC [A2G U51A U54C U72C] gave a self-cleavage of 0.58. For UGACAGGGGGCCACAGCAGAAGCGUUCACGUCGCAGCCCCUGUCAGAUUCAGGUGAAUCUGCGAAUUCAGCUGUAUAUCUC [A2G U51A U69A], the self-cleavage was 0.31. In the case of UGACAGGGGGCCACAGCAGAAGCGUUCACGUCGCAGCCCCUGUCAGAUUCCGGUGAAUCUGCGAAUUCUGCUGUAUAACUC [A2G U51C U78A], the self-cleavage is reported as 0.49. Work on UGACAGGGGGCCACAGCAGAAGCGUUCACGUCGCAGCCCCUGUCAGAUUCUGGUGAAACUGCGAAUUCCGCUGUAUAUCUC [A2G U58A U69C] yielded a self-cleavage of 0.16. UGACAGGGGGCCACAGCAGAAGCGUUCACGUCGCAGCCCCUGUCAGAUUCUGGUGAAGCUGCGAACUCUGCUGUAUGUCUC [A2G U58G U66C A77G] showed a self-cleavage of 0.52. For UGACAGGGGGCCACAGCAGAAGCGUUCACGUCGCAGCCCCUGUCAGAUUCUGGUGAAUCAGCGGAUUCUGCUGUAUAUCUC [A2G U60A A64G], the self-cleavage was 0.11. With UGACAGGGGGCCACAGCAGAAGCGUUCACGUCGCAGCCCCUGUCAGAUUCUGGUGAAUCCGCGAAUCCUGCUGUACAUCUC [A2G U60C U67C U76C] the self-cleavage was 0.16. In the case of UGACAGGGGGCCACAGCAGAAGCGUUCACGUCGCAGCCCCUGUCAGAUUCUGGUGAAUCUGCGAACUCUGCCGUAUAUCUC [A2G U66C U72C], the self-cleavage is reported as 0.22. Variant UGACAGGGGGCCACAGCAGAAGCGUUCACGUCGCAGCCCCUGUCAGAUUCUGGUGAAUCUGCGAAUUCUGCUGUAUAACAC [A2G U78A U80A] has a self-cleavage of 1. With UUGCAGGGGGCCACAGCAGAGGCGUACACGUCGCAGCCCCUGUCAGAUUCCGGUGAAUCUGCGGAUUCUGCUGUAUAUCUC [A2U A3G A21G U26A U51C A64G] the self-cleavage was 0.28. Variant UUGCAGGGGGCCACAGCAGAAGCGUUCACGUCGCAGCCCAUGUCAGUUUCUGGUGAACCUGCGAAUUCCGCUGUAUAUCUC [A2U A3G C40A A47U U58C U69C] has a self-cleavage of 0.16. Variant UUGCAGGGGGCCACAAUAGAAGCGUUCACGUCGCAGCCCCUGUCCGAUCCUGGUGAAUCUGCGAAUUCUGCUGUAUAUCUC [A2U A3G G16A C17U A45C U49C] has a self-cleavage of 0.19. Work on UUUCAGGGGGCCACUGCAGAAGCGUUCGCGUCGCAGCCCCUGUCAGGAUCUGGUGAAUCUGCGAAUUCUGCAGUAUAUCUC [A2U A3U A15U A28G A47G U48A U72A] yielded a self-cleavage of 0.32. With UUUCAGGGGGCCACAGCAGAAGCGUUCACGUCGCAGCCCCUGUCAGAUUCUGGUGGAUCUGCGAAUUCUGCUGUAUAUCUC [A2U A3U A56G] the self-cleavage was 1.1. With UUACGGGGGGCCUCAGCAGGAGCGUUCACGUCGCAGCCCCUGUCAGAUUCUGGUGAAUCUGCGAACUCUGCUGUAUAUCUC [A2U A5G A13U A20G U66C] the self-cleavage was 0.39. With UUACGGGGGGCCACGGCAGAAGCGUUUACGUCCCAGCCCCUGUCAGGUUCUGGUGAAUCUGCGAAUUCUGCUGUACAUCUC [A2U A5G A15G C27U G33C A47G U76C] the self-cleavage was 0.15. UUACGGGGGGCCACGGCAGAAGCGUUCACGUCGCAGCCCCUGUCAGAUUCUGGUGAAUCUGCGAAUUCUGCUGUAUAUCAC [A2U A5G A15G U80A] gave a self-cleavage of 0.85. UUACGGGGGGCCACAGCAGAGGCGUUCACGUCGGAGCCCCUGUCAGAUUCUGGUGAAUCUGCGAAUACUGCUGUAUAUCCC [A2U A5G A21G C34G U67A U80C] gave a self-cleavage of 0.08. UUACGGGGGGCCACAGCAGAAGCGUUCACGUCGCAGCCCCUGUCAGACUCUGGUGAAUCCGCGAAUUCUGCUGUAUAUCUC [A2U A5G U48C U60C] showed a self-cleavage of 0.34. For UUACGGGGGGCCACAGCAGAAGCGUUCACGUCGCAGCCCCUGUCAGAUACUGGUGAAUCUGCGAUUUCUGCUGUAUAUCUC [A2U A5G U49A A65U], the self-cleavage was 0.42. With UUACUGGGGGCCUCCGCAGAAGCUUUCACGUCGCAGCCCCUGUCAGAUUCUGGUGAAUCUGCGAAUUCUGCCGUAUAUCUC [A2U A5U A13U A15C G24U U72C] the self-cleavage was 0.5. With UUACUGGGGGCCACGGCAGGAGCGUUCACGUCGCAGCCCCUGUCGGAUUCUGGAGAAUCUGCGAAUUCUGCCGUAUAUCUC [A2U A5U A15G A20G A45G U54A U72C] the self-cleavage was 0.89. In the case of UUACUGAGGGCCACAGCAGAAGCGUUCACGUCGCGGCCCCUGUCAGAUUCUGGUGUGUCUGCGAAUUCUGCUGUACAUCUC [A2U A5U G7A A35G A56U A57G U76C], the self-cleavage is reported as 0.11. Variant UUACUGGGGGCCACAGCAGAAGCGUUCACGUCGCAGCCCCCGCCAGAUUCUGGUGAAUCUGCGAAUUCUGCGGUAUAUCUC [A2U A5U U41C U43C U72G] has a self-cleavage of 0.41. Variant UUACAGGGGGCCCCAGCAGGAGCGCUCACGUCGCAGCCCCUGUCAGAUUCUGGUGAAUCUGCGAAUUCUGCUAUAUAUCUC [A2U A13C A20G U25C G73A] has a self-cleavage of 0.11. Work on UUACAGGGGGCCCCAGCAGAAGCGUUCACGUCGCGGCCCCUGUCAGUUUCUGAUGAAUCUGCGAAUUCUGCUGUACAUCAC [A2U A13C A35G A47U G53A U76C U80A] yielded a self-cleavage of 1.26. For UUACAGGGGGCCCCAGCAGAAGCGUACACGCCGCAGCCCCUGUCAGAUUCUGGUGAAUCAGCGAAUUCUGCUGUAUAUCUC [A2U A13C U26A U31C U60A], the self-cleavage was 0.12. UUACAGGGGGCCGCAGCAGGAGCGUUCACGUCGCAGCCCCUGUCAGAUUCUGGUGAAUCUGCGAAUUCUGCUGUAUAUCCC [A2U A13G A20G U80C] showed a self-cleavage of 0.43. In the case of UUACAGGGGGCCGCAGCAGAAGCGUACACGUCGCAGCCCCUGUCAGAUUCUGGUGAAUCCGCGAAUUCUGCUGUAUAUCUC [A2U A13G U26A U60C], the self-cleavage is reported as 0.33. Work on UUACAGGGGGCCGCAGCAGAAGCGUUCACGCCGCAGCCCCUGUCAGAUUCUGGUGAAUCUGCGAAUUCUGCUGCAUAUCUC [A2U A13G U31C U74C] yielded a self-cleavage of 0.45.
